# Whole data set: some 2,900 compounds, median “NF-kB SEAP reporter activity, fold change vs agonist alone” near 0.99, cut for the highest 2% near 2.6. The list shows a part of the results.
# Key:
# [1] = test system: RAW-Dual; test: NF-kB SEAP reporter activity, fold change vs agonist alone; higher = enhanced NF-kB activity
# Procedure, shortened: (§1)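 Supernatant from RAW-Dual macrophages was read after 20 hours for IRF by QuantiLuc luminescence and for NF-κB by QuantiBlue absorbance at 620 nm. The cells (50,000 cells/well in DMEM, 384-well plates, 37 °C, 5% CO2) had received 50 nL of library stock by pin tool and, 1 h later, a PRR agonist. Reporter activity is expressed relative to agonist-alone wells as fold change, and wells were flagged cytotoxic if IncuCyte confluency was under 70% of agonist controls in both mask sets.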
# [2] = test system: RAW-Dual; test: NF-kB SEAP reporter activity, fold change vs agonist alone; cytotoxicity flag (confluency mask): not cytotoxic; higher = enhanced NF-kB activity
# Procedure, shortened: as §1
# [3] = test system: RAW-Dual; test: NF-kB SEAP reporter activity, fold change vs agonist alone; cytotoxicity flag (confluency mask): cytotoxic (confluency <70% of control); higher = enhanced NF-kB activity
# Procedure, shortened: as §1
# [4] = agonist: ODN 1826 (TLR9) 0.5 ug/mL
# [5] = agonist: Pam2CSK4 (TLR2/6) 0.1 ug/mL
# [6] = agonist: Pam3CSK4 (TLR2/1) 0.1 ug/mL
# [7] = library stock concentration (final ~1000-fold dilution): 10 mM, cytotoxicity flag (confluency mask): not cytotoxic, agonist: Imiquimod (TLR7) […]
# [8] = library stock concentration (final ~1000-fold dilution): 10 mM, cytotoxicity flag (confluency mask): not cytotoxic, agonist: MPLA (TLR4) […]
# [9] = library stock concentration (final ~1000-fold dilution): 10 mM, cytotoxicity flag (confluency mask): cytotoxic (confluency <70% of control), agonist: Imiquimod (TLR7) […]
# [10] = library stock concentration (final ~1000-fold dilution): 10 mM, cytotoxicity flag (confluency mask): cytotoxic (confluency <70% of control), agonist: MPLA (TLR4) […]
structure (smiles),measurement,setting,value
COc1cc(N2CCC(N3CCN(C)CC3)CC2)ccc1Nc1ncc(Cl)c(Nc2ccccc2P(C)(C)=O)n1,NF-kB SEAP reporter activity,"[1]; library stock concentration (final ~1000-fold dilution): 2 mM, cytotoxicity flag (confluency mask): not cytotoxic, agonist: Imiquimod (TLR7) […]",1.15
same,NF-kB SEAP reporter activity,"[1]; library stock concentration (final ~1000-fold dilution): 2 mM, cytotoxicity flag (confluency mask): not cytotoxic, agonist: MPLA (TLR4) […]",1.26
COc1cc(N2CCC(N3CCN(C)CC3)CC2)ccc1Nc1ncc(Cl)c(Nc2ccccc2P(C)(C)=O)n1 (library stock concentration (final ~1000-fold dilution): 2 mM),NF-kB SEAP reporter activity,[2]; agonist: LPS (TLR4) 0.1 ug/mL,2.66
same,NF-kB SEAP reporter activity,[2]; [4],1.27
same,NF-kB SEAP reporter activity,[2]; [5],1.28
same,NF-kB SEAP reporter activity,[2]; [6],1.66
O=C1NCCCc2c1oc1ccc(O)cc21,NF-kB SEAP reporter activity,[1]; [7],0.984
same,NF-kB SEAP reporter activity,[1]; [8],0.876
O=C1NCCCc2c1oc1ccc(O)cc21 (library stock concentration (final ~1000-fold dilution): 10 mM),NF-kB SEAP reporter activity,[2]; agonist: LPS (TLR4) 0.1 ug/mL,0.884
same,NF-kB SEAP reporter activity,[2]; [4],0.617
same,NF-kB SEAP reporter activity,[2]; [5],0.904
same,NF-kB SEAP reporter activity,[2]; [6],1.02
COc1ccccc1OCC(O)COC(N)=O (centres undefined),NF-kB SEAP reporter activity,[1]; [7],0.897
same,NF-kB SEAP reporter activity,[1]; [8],0.786
COc1ccccc1OCC(O)COC(N)=O (centres undefined) (library stock concentration (final ~1000-fold dilution): 10 mM),NF-kB SEAP reporter activity,[2]; agonist: LPS (TLR4) 0.1 ug/mL,1.02
same,NF-kB SEAP reporter activity,[2]; [4],0.946
same,NF-kB SEAP reporter activity,[2]; [5],1.04
same,NF-kB SEAP reporter activity,[2]; [6],1.11
NC(=O)C(=Cn1cnc(-c2cc(C(F)(F)F)cc(C(F)(F)F)c2)n1)c1cncnc1,NF-kB SEAP reporter activity,[1]; [7],0.765
same,NF-kB SEAP reporter activity,[1]; [8],0.772
NC(=O)C(=Cn1cnc(-c2cc(C(F)(F)F)cc(C(F)(F)F)c2)n1)c1cncnc1 (library stock concentration (final ~1000-fold dilution): 10 mM),NF-kB SEAP reporter activity,[2]; agonist: LPS (TLR4) 0.1 ug/mL,0.331
same,NF-kB SEAP reporter activity,[2]; [4],0.334
same,NF-kB SEAP reporter activity,[2]; [5],0.13
same,NF-kB SEAP reporter activity,[2]; [6],0.148
COc1ccc(CCc2nc3cc(-c4c(C)noc4C)ccc3n2CC(C)N2CCOCC2)cc1Cl (centres undefined) (library stock concentration (final ~1000-fold dilution): 10 mM),NF-kB SEAP reporter activity,[2]; agonist: LPS (TLR4) 0.1 ug/mL,4.47
COc1ccc(CCc2nc3cc(-c4c(C)noc4C)ccc3n2CC(C)N2CCOCC2)cc1Cl (centres undefined),NF-kB SEAP reporter activity,[1]; [8],2.65
CC(C)n1nc(-c2ccc(NC(=O)Nc3cc(C(F)(F)F)ccc3F)cc2)c2c(N)ncnc21,NF-kB SEAP reporter activity,[1]; [7],0.149
same,NF-kB SEAP reporter activity,[1]; [8],0.261
CC(C)n1nc(-c2ccc(NC(=O)Nc3cc(C(F)(F)F)ccc3F)cc2)c2c(N)ncnc21 (library stock concentration (final ~1000-fold dilution): 10 mM),NF-kB SEAP reporter activity,[2]; agonist: LPS (TLR4) 0.1 ug/mL,0.398
same,NF-kB SEAP reporter activity,[2]; [4],0.196
same,NF-kB SEAP reporter activity,[2]; [5],0.0706
same,NF-kB SEAP reporter activity,[2]; [6],0.216
N#Cc1c(NC(=O)c2cccc3ccccc23)sc2c1CCCC2 (library stock concentration (final ~1000-fold dilution): 10 mM),NF-kB SEAP reporter activity,[2]; agonist: LPS (TLR4) 0.1 ug/mL,2.36
same,NF-kB SEAP reporter activity,[2]; [4],2.18
same,NF-kB SEAP reporter activity,[2]; [5],1.25
same,NF-kB SEAP reporter activity,[2]; [6],1.4
N#Cc1c(NC(=O)c2cccc3ccccc23)sc2c1CCCC2,NF-kB SEAP reporter activity,[1]; [7],1.46
same,NF-kB SEAP reporter activity,[1]; [8],1.94
C=CC(=O)Nc1cccc(Nc2nc(Nc3ccc(OCCOC)cc3)ncc2F)c1 (library stock concentration (final ~1000-fold dilution): 10 mM),NF-kB SEAP reporter activity,[2]; agonist: LPS (TLR4) 0.1 ug/mL,1.12
same,NF-kB SEAP reporter activity,[2]; [4],0.8
same,NF-kB SEAP reporter activity,[2]; [5],0.545
same,NF-kB SEAP reporter activity,[2]; [6],0.672
C=CC(=O)Nc1cccc(Nc2nc(Nc3ccc(OCCOC)cc3)ncc2F)c1,NF-kB SEAP reporter activity,[1]; [7],1.11
same,NF-kB SEAP reporter activity,[1]; [8],1.69
CCC(=O)Nc1cccc(Oc2nc(Nc3ccc(N4CCN(C)CC4)cc3OC)ncc2Cl)c1 (library stock concentration (final ~1000-fold dilution): 10 mM),NF-kB SEAP reporter activity,[3]; agonist: LPS (TLR4) 0.1 ug/mL,1.65
same,NF-kB SEAP reporter activity,[3]; [4],0.875
same,NF-kB SEAP reporter activity,[3]; [5],0.603
same,NF-kB SEAP reporter activity,[3]; [6],1.02
CCC(=O)Nc1cccc(Oc2nc(Nc3ccc(N4CCN(C)CC4)cc3OC)ncc2Cl)c1,NF-kB SEAP reporter activity,[1]; [9],1.1
same,NF-kB SEAP reporter activity,[1]; [10],1.7
O=S(=O)(Cl)c1ccc(-c2ccccc2)cc1,NF-kB SEAP reporter activity,[1]; [8],1.05
O=S(=O)(Cl)c1ccc(-c2ccccc2)cc1 (library stock concentration (final ~1000-fold dilution): 10 mM),NF-kB SEAP reporter activity,[2]; agonist: LPS (TLR4) 0.1 ug/mL,1.31
same,NF-kB SEAP reporter activity,[2]; [4],0.979
same,NF-kB SEAP reporter activity,[2]; [5],0.82
same,NF-kB SEAP reporter activity,[2]; [6],0.849
Nc1nc(Cl)nc2c1ncn2C1CC(O)C(CO)O1 (centres undefined),NF-kB SEAP reporter activity,[1]; [9],2.1
same,NF-kB SEAP reporter activity,[1]; [10],1.55
Nc1nc(Cl)nc2c1ncn2C1CC(O)C(CO)O1 (centres undefined) (library stock concentration (final ~1000-fold dilution): 10 mM),NF-kB SEAP reporter activity,[3]; agonist: LPS (TLR4) 0.1 ug/mL,1.8
same,NF-kB SEAP reporter activity,[3]; [4],2.13
same,NF-kB SEAP reporter activity,[3]; [5],1.43
same,NF-kB SEAP reporter activity,[3]; [6],1.8
O=C(c1ccccc1)c1ccc2n1CCC2C(=O)O (centres undefined) (library stock concentration (final ~1000-fold dilution): 10 mM),NF-kB SEAP reporter activity,[2]; agonist: LPS (TLR4) 0.1 ug/mL,0.892
same,NF-kB SEAP reporter activity,[2]; [4],0.994
same,NF-kB SEAP reporter activity,[2]; [5],1.05
same,NF-kB SEAP reporter activity,[2]; [6],1.21
O=C(c1ccccc1)c1ccc2n1CCC2C(=O)O (centres undefined),NF-kB SEAP reporter activity,[1]; [7],0.931
same,NF-kB SEAP reporter activity,[1]; [8],1.04
CCC(CC)(NC(=O)C(C)C)C(=O)NC(CCCNC(=N)N)C(=O)NC1(C(=O)NC(c2ccc(F)cc2)c2ccc(F)cc2)CCCC1 (centres undefined),NF-kB SEAP reporter activity,[1]; [7],1.08
same,NF-kB SEAP reporter activity,[1]; [8],0.867
CCC(CC)(NC(=O)C(C)C)C(=O)NC(CCCNC(=N)N)C(=O)NC1(C(=O)NC(c2ccc(F)cc2)c2ccc(F)cc2)CCCC1 (centres undefined) (library stock concentration (final ~1000-fold dilution): 10 mM),NF-kB SEAP reporter activity,[2]; agonist: LPS (TLR4) 0.1 ug/mL,0.847
same,NF-kB SEAP reporter activity,[2]; [4],0.788
same,NF-kB SEAP reporter activity,[2]; [5],0.957
same,NF-kB SEAP reporter activity,[2]; [6],0.971
Cc1cccc(-c2nc(C(C)(C)C)[nH]c2-c2ccc3nccnc3c2)n1 (library stock concentration (final ~1000-fold dilution): 10 mM),NF-kB SEAP reporter activity,[2]; agonist: LPS (TLR4) 0.1 ug/mL,1.69
same,NF-kB SEAP reporter activity,[2]; [4],1.15
same,NF-kB SEAP reporter activity,[2]; [5],1.05
same,NF-kB SEAP reporter activity,[2]; [6],1.12
Cc1cccc(-c2nc(C(C)(C)C)[nH]c2-c2ccc3nccnc3c2)n1,NF-kB SEAP reporter activity,[1]; [7],1.09
same,NF-kB SEAP reporter activity,[1]; [8],1.26

# Source: the supplement of paper PMC10037445
